Results reported in PubChem BioAssay AID504339 (National Center for Advancing Translational Sciences (NCATS), 2011).
About 17,000 (4.4%) of roughly 390,000 compounds were called active. This list was built around the results that the source calls inconclusive (neither active nor inactive); the mix of calls is not that of the screen. Calls follow the shape of the dose curve; as a rule, active = well fitted inhibition curve with a large enough effect; inconclusive = small, poorly fitted or top-dose-only effect; inactive = no such curve, though single readings can be large or run the other way. A potency beside an inconclusive call is a rough fit, not a confirmed value.

Target: Lysine-specific demethylase 4A (Homo sapiens) (UniProt O75164)
Sequence of UniProt O75164 (O75164 whole entry, looked up, the tested form may be a part): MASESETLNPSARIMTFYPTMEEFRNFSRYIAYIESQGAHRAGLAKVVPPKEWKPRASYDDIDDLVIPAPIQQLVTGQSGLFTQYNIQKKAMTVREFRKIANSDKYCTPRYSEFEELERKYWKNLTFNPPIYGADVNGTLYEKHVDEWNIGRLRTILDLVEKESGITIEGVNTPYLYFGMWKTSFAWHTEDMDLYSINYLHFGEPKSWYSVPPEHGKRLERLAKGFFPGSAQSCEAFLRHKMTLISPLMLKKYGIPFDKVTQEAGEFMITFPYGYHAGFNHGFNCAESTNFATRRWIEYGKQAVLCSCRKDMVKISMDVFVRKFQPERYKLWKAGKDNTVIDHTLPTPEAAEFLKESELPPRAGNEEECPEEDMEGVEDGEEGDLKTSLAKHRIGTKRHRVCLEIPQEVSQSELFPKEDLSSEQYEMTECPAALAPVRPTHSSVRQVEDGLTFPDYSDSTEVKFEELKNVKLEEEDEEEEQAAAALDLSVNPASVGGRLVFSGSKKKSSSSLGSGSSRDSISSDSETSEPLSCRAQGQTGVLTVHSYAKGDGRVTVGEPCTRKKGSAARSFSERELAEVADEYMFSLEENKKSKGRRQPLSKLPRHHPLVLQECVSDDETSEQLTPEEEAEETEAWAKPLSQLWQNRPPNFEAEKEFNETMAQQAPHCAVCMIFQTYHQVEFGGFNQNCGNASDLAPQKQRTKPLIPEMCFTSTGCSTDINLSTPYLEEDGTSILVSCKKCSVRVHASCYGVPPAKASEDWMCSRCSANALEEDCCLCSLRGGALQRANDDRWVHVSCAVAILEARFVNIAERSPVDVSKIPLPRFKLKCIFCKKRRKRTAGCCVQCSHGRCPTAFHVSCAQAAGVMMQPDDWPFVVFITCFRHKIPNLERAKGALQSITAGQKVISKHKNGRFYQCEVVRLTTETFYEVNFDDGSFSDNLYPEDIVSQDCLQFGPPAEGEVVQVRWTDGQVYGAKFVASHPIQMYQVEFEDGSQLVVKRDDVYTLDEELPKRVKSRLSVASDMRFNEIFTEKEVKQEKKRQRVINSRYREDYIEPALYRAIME
Assay: qHTS Assay for Inhibitors of JMJD2A-Tudor Domain; also: nearly all actives have a fitted effect of over 50% in size
Settings: AlphaScreen JMJD2A-Tudor / H3K4me3 peptide binding; series mostly up to 114 µM
Potency is read from the fitted curve at half-maximal effect; tags tell the direction and shape of the fitted curve.

**Q.** Which Potency does the source give for `O=C(C[n+]1cccc(C(=O)Nc2ccccc2)c1)c1ccc([N+](=O)[O-])cc1` here?
**A.** inconclusive: 63.1 µM [inhibitor, partial curve, poor fit]

**Q.** With `O=C(N/N=C/c1ccc(O)c(O)c1)NC12CC3CC(CC(C3)C1)C2` as the compound, how does the Potency read?
**A.** inconclusive: 3.16 µM [inhibitor, single point]

**Q.** Which Potency does the source give for `CCOc1ccccc1NC(=O)COc1coc(CN2CCCc3ccccc32)cc1=O` here?
**A.** inconclusive: 22.4 µM [inhibitor, full curve, poor fit]

**Q.** For `COc1cccc(NC2c3ccccc3C(=O)N2Cc2ccco2)c1` (stereo unspecified), which Potency is on record?
**A.** inconclusive: 50.1 µM [inhibitor, partial curve]

**Q.** For `Cc1ccc(C(=O)N(CCCN(C)C)c2nc3ccc(Cl)cc3s2)cc1C`, which Potency is on record?
**A.** inconclusive: 50.1 µM [inhibitor, partial curve]

**Q.** For `CCOC(=O)c1cccc(NC(=O)CN2CCN(c3ccc(OC)cc3)CC2)c1`, which Potency is on record?
**A.** inconclusive: 56.2 µM [inhibitor, partial curve]

**Q.** `CCOC(=O)c1c(C)oc2nc(C)nc(N3CCN(c4cccc(C(F)(F)F)c4)CC3)c12` was tested. Which Potency did it give?
**A.** inactive

**Q.** `O=C(N/C(=C\c1ccco1)C(=O)N1CCCCC1)c1ccc([N+](=O)[O-])cc1` was tested. Which Potency did it give?
**A.** inactive

**Q.** With `O=C(O)CN1C(=O)COc2ccc(S(=O)(=O)N3CCCCCC3)cc21` as the compound, how does the Potency read?
**A.** inactive

**Q.** Which Potency does the source give for `O=C(NCCc1ccccc1)c1c[nH]c2c(F)cccc2c1=O` here?
**A.** inconclusive: 39.8 µM [inhibitor, single point]

**Q.** Which Potency does the source give for `CC1=Nc2cc(C(=O)N3CCCCC3)ccc2Sc2ccc(C)cc21` here?
**A.** inconclusive: 12.6 µM [inhibitor, full curve]

**Q.** For `O=C(NCCc1ccc2c(c1)OCCO2)c1ccc([N+](=O)[O-])cc1Cl`, which Potency is on record?
**A.** inactive

**Q.** With `O=C(Nc1ccc(Cl)cc1C(F)(F)F)C(Sc1nnc(-c2cccs2)o1)c1ccccc1` (stereo unspecified) as the compound, how does the Potency read?
**A.** inconclusive: 70.8 µM [inhibitor, single point]

**Q.** `COc1cc(OC)c2ccc(=O)oc2c1C(CCN1CCOCC1)c1ccc2c(c1)OCO2` (stereo unspecified) was tested. Which Potency did it give?
**A.** inconclusive: 89.1 µM [inhibitor, partial curve]

**Q.** With `COc1cc(C(=O)NCC(c2ccco2)N2CCc3ccccc32)cc(OC)c1OC` (stereo unspecified) as the compound, how does the Potency read?
**A.** inconclusive: 44.7 µM [inhibitor, partial curve]

**Q.** How did the Potency turn out when `COc1ccccc1N(C)S(=O)(=O)c1ccc(C(=O)N(C)Cc2ccc(Cl)s2)cc1` was run?
**A.** inactive

**Q.** `CN(C)c1ccc(NC(=O)CN2CCN(S(=O)(=O)c3cc(Cl)ccc3Cl)CC2)cc1` was tested. Which Potency did it give?
**A.** inconclusive: 56.2 µM [inhibitor, partial curve]

**Q.** `CN(Cc1ccsc1)C(=O)CCc1nnc(Cc2c[nH]c3ccccc23)o1` was tested. Which Potency did it give?
**A.** active: 44.7 µM

**Q.** For `COCCN(C(=O)COC(=O)c1ccc2[nH]c(C)c(C)c2c1)c1c(N)n(Cc2ccccc2)c(=O)[nH]c1=O`, which Potency is on record?
**A.** inconclusive: 50.1 µM [inhibitor, partial curve]

**Q.** How did the Potency turn out when `O=C(Cn1c(C(=O)N2CCN(C3CCCC3)CC2)cc2sccc21)c1ccccc1` was run?
**A.** inconclusive: 56.2 µM [inhibitor, partial curve]

**Q.** With `CCC(=O)NC(c1ccc2c(c1)OCO2)c1cc(Cl)c2cccnc2c1O` (stereo unspecified) as the compound, how does the Potency read?
**A.** inconclusive: 89.1 µM [inhibitor, single point]

**Q.** For `Cn1c(SCC(=O)NC2CC2)nnc1-c1ccco1`, which Potency is on record?
**A.** inactive

**Q.** Which Potency does the source give for `CCN1CCN(CCn2c(=S)[nH]c3cc4c(cc3c2=O)OCO4)CC1` here?
**A.** inconclusive: 35.5 µM [inhibitor, single point]

**Q.** Which Potency does the source give for `O=C(N/N=C/c1ccc(N2CCOCC2)cc1)c1ccncc1` here?
**A.** inactive

**Q.** For `COc1cc(N/N=C(\C)c2ccc(O)c(C)c2)nc(-c2ccccc2)n1`, which Potency is on record?
**A.** inconclusive: 56.2 µM [inhibitor, partial curve]

**Q.** `C=C(C)Cn1c(SCC(=O)N/N=C/c2ccccc2)nc2ccccc2c1=O` was tested. Which Potency did it give?
**A.** inactive

**Q.** How did the Potency turn out when `CCOC(=O)c1c(-c2ccc(-c3ccccc3)cc2)csc1NC(=O)CCN1CCOCC1` was run?
**A.** inconclusive: 50.1 µM [inhibitor, single point]

**Q.** How did the Potency turn out when `COCC(=O)N(C)C[C@H]1N[C@@](C)(C(=O)OC)[C@H]2C(=O)N(Cc3ccccc3)C(=O)[C@@H]12` was run?
**A.** inactive

**Q.** `Cc1cccc(Nc2nnc(SCC(=O)Nc3cccc(S(=O)(=O)N4CCCCC4)c3)s2)c1` was tested. Which Potency did it give?
**A.** inconclusive: 39.8 µM [inhibitor, single point]

**Q.** Which Potency does the source give for `COCCN1C(=O)/C(=C/c2ccc(N3CCCC3)cc2C)SC1=S` here?
**A.** inconclusive: 3.98 µM [inhibitor, full curve]

**Q.** `CC1CCCCN1CCCNC(=O)c1ccc(Br)cc1` (stereo unspecified) was tested. Which Potency did it give?
**A.** inactive

**Q.** For `CC1=C(CC/C(C)=N/NC(N)=S)C(C)(C)CCC1`, which Potency is on record?
**A.** inactive

**Q.** How did the Potency turn out when `CCCCN1C(=N)N([C@@H](C)CN2CCC[C@H]2CN2C(N)=NC[C@@H]2Cc2ccccc2)C[C@H]1[C@H](C)CC` was run?
**A.** inconclusive: 89.1 µM [inhibitor, partial curve]

**Q.** `S=c1[nH]ncn1/N=C/c1ccccc1` was tested. Which Potency did it give?
**A.** active: 6.31 µM

**Q.** With `COc1ccc(C(=O)N/N=C(\C)c2ccccn2)cc1OC` as the compound, how does the Potency read?
**A.** active: 22.4 µM

**Q.** For `COc1ccc(Nc2nc(N)nc(CN3CCc4ccccc4C3)n2)cc1`, which Potency is on record?
**A.** inconclusive: 35.5 µM [inhibitor, partial curve]

**Q.** With `CCOC(=O)C1=NOC(COc2ccccc2C=O)C1` (stereo unspecified) as the compound, how does the Potency read?
**A.** inconclusive: 39.8 µM [inhibitor, single point]

**Q.** How did the Potency turn out when `O=C(CN1CCN(C(=O)C2CCCO2)CC1)Nc1ccc(Cl)c(Cl)c1` (stereo unspecified) was run?
**A.** inactive

**Q.** `Cc1cc([N+](=O)[O-])nn1CCCC(=O)Nc1cc(Oc2ccccc2)cc([N+](=O)[O-])c1` was tested. Which Potency did it give?
**A.** inconclusive: 10 µM [inhibitor, full curve]

**Q.** Which Potency does the source give for `COc1ccc(NC(=O)/C(C#N)=C/c2ncc([N+](=O)[O-])n2C)c(OC)c1` here?
**A.** inconclusive: 17.8 µM [inhibitor, partial curve]

**Q.** How did the Potency turn out when `COc1ccc(S(=O)(=O)c2nnn(-c3ccc(C)c(Cl)c3)c2C)cc1` was run?
**A.** inactive

**Q.** `O=S(=O)(NCCc1cn(S(=O)(=O)c2ccccc2)c2ccccc12)c1ccccc1` was tested. Which Potency did it give?
**A.** active: 50.1 µM

**Q.** Which Potency does the source give for `CCOc1cccc(C(=O)Nc2cc(-c3nn4c(C)nnc4s3)ccc2C)c1` here?
**A.** inactive

**Q.** For `COc1ccc2c(c1)OC[C@H]1[C@H]2N2C(=O)c3cc(C)ccc3NC(=O)[C@@]2(C)[C@H]1c1ccccc1`, which Potency is on record?
**A.** inconclusive: 79.4 µM [inhibitor, partial curve]

**Q.** For `O=[N+]([O-])c1ccccc1CN1CCN(S(=O)(=O)Cc2ccccc2)CC1`, which Potency is on record?
**A.** active: 0.794 µM

**Q.** With `CCOC(=O)C1(CCc2ccccc2)CCN(Cc2cnc(N(C)C)s2)CC1` as the compound, how does the Potency read?
**A.** inconclusive: 63.1 µM [inhibitor, partial curve]

**Q.** How did the Potency turn out when `Cc1ccc(-c2cn(-c3ccc(Cl)cc3)c(S(=O)(=O)CC(=O)Nc3ccccc3)n2)cc1` was run?
**A.** inconclusive: 17.8 µM [inhibitor, full curve]

**Q.** For `COc1cccc(-n2c(CCn3nc(C)c([N+](=O)[O-])c3C)n[nH]c2=S)c1`, which Potency is on record?
**A.** active: 11.2 µM

**Q.** With `COc1cccc(/C=N/NC(=O)C(=O)NCc2cccnc2)c1O` as the compound, how does the Potency read?
**A.** inconclusive: 0.708 µM [inhibitor, full curve, poor fit]

**Q.** `COc1ccc(CNc2nc(N)nc3nc[nH]c23)cc1` was tested. Which Potency did it give?
**A.** inactive

**Q.** How did the Potency turn out when `CC(C)C(C(=O)O)N1C(=O)/C(=C/C=C/c2ccco2)SC1=S` (stereo unspecified) was run?
**A.** active: 3.55 µM

**Q.** Which Potency does the source give for `CCN(CC)CCN(C)C1CCC(c2ccccc2)CC1` (stereo unspecified) here?
**A.** active: 6.31 µM

**Q.** How did the Potency turn out when `COC(=O)c1ccc2[nH]c(CO)c(-c3ccccc3)c2c1` was run?
**A.** inconclusive: 39.8 µM [inhibitor, partial curve, poor fit]

**Q.** For `COc1ccc(/C=N/Nc2nc(N3CCCCC3)nc(N3CCCCC3)n2)cc1[N+](=O)[O-]`, which Potency is on record?
**A.** inconclusive: 25.1 µM [inhibitor, partial curve]

**Q.** With `O=C(c1ccccn1)N1CC=C(c2ccccc2)CC1` as the compound, how does the Potency read?
**A.** inconclusive: 44.7 µM [inhibitor, partial curve]

**Q.** How did the Potency turn out when `CCn1c(SCC(=O)Nc2cccc(OC)c2)nnc1-c1ccc(Cl)cc1` was run?
**A.** inconclusive: 56.2 µM [inhibitor, partial curve]

**Q.** With `COc1ccc(CCNC(=O)CCOc2cc(C)ccc2C)cc1OC` as the compound, how does the Potency read?
**A.** inactive

**Q.** With `CSc1nccn1C(=O)c1ccccc1[N+](=O)[O-]` as the compound, how does the Potency read?
**A.** active: 35.5 µM

**Q.** With `Cc1cc(C)n(Cc2ccc(C(=O)N/N=C/c3ccc(-c4ccc([N+](=O)[O-])cc4)o3)o2)n1` as the compound, how does the Potency read?
**A.** active: 50.1 µM

**Q.** Which Potency does the source give for `CCOc1ccc(S(=O)(=O)Nc2cc(Cl)ccc2OC)c2cccnc12` here?
**A.** inactive

**Q.** Which Potency does the source give for `COc1ccc2[nH]c(C(=O)O)c(CCC(=O)O)c2c1` here?
**A.** inactive

**Q.** `CCOc1ccc(NC(=O)CN(C)C(=O)c2n[nH]c(=O)c3ccccc23)cc1OCC` was tested. Which Potency did it give?
**A.** inconclusive: 100 µM [inhibitor, single point]

**Q.** With `COc1ccc(-c2cn[nH]c2-c2ccc(OC)cc2O)cc1` as the compound, how does the Potency read?
**A.** inconclusive: 79.4 µM [inhibitor, partial curve]

**Q.** `O=C(Nc1nc2ccccc2s1)c1ccc([N+](=O)[O-])o1` was tested. Which Potency did it give?
**A.** inactive

**Q.** Which Potency does the source give for `O=C(CSCc1ccc(F)cc1)Nc1nc2c(s1)CCCC2` here?
**A.** inconclusive: 56.2 µM [inhibitor, partial curve, poor fit]

**Q.** `Nc1nc(Nc2ccccc2)nc(N2CCOCC2)c1[N+](=O)[O-]` was tested. Which Potency did it give?
**A.** inconclusive: 0.631 µM [inhibitor, full curve, poor fit]

**Q.** How did the Potency turn out when `COc1cc(C2C(C(C)=O)=C(O)C(=O)N2c2ccc(Br)cn2)ccc1O` (stereo unspecified) was run?
**A.** active: 89.1 µM

**Q.** Which Potency does the source give for `COc1cccc(NC(=S)NN=C2CCCCCC2)c1` here?
**A.** inconclusive: 56.2 µM [inhibitor, partial curve]

**Q.** Which Potency does the source give for `CC(=O)NCCOc1cccc2ccccc12` here?
**A.** inactive

**Q.** Which Potency does the source give for `COc1ccc(CCNc2oc(-c3ccccc3OC)nc2C#N)cc1` here?
**A.** inconclusive: 50.1 µM [inhibitor, partial curve]

**Q.** For `NC(=S)N=Nc1ccc(NN=C(N)N)cc1`, which Potency is on record?
**A.** active: 11.2 µM
